# Some of the results follow.
# Tested on: PfAP2-HC AP2 domain (GST-tagged)
# Assay: gcPBM binding intensity (ln(normalized median fluorescence intensity)); higher = stronger DNA binding
# In short: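 Each value is the highest Masliner-normalised natural-log median intensity across replicate spots of either orientation of a probe. The probes were primer-extended double-stranded 36-bp intergenic genomic sequences on an Agilent 4 × 180k array, alongside negative controls, exposed for 1 h to GST-tagged P. falciparum DNA-binding domains expressed in E. coli. Bound protein was picked up with Alexa488 anti-GST antibody and scanned at 488 nm.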
row,Sequence,gcPBM binding intensity (ln)
1,TATATGGCATATTTCACACACACATAATGAATATTA [CACACA_site9181],10.1
2,ATATAGCATATAATTTGTACACAGGCCATACCTGAA [XGTACX_site533],9.59
3,AGATGATATACGTAAACACACAAATAAAAAAAATTT [CACACA_site3327],9.83
4,TTTGTTTTATCTTATATGCACACGATAAAAAAAAAA [CACACA_site2673],9.39
5,ATCCAAAAAATTAATGCATGCGCAAAAAATAGCTTA [TGCATGCA_site615],9.57
6,AAAAAAAAAACATACACACACATATATATATATATG [CACACA_site1586],10.7
7,TGTCCTTATTTGCACACACACATATAAGAAATTTAA [CACACA_site7485],10.2
8,TATAAACATATCATATGTACATATATTTTTATAAAA [XGTACX_site8882],9.38
9,ATATATTTTTGTAGTGTGCACGTTTATATGGTGAAA,9.69
10,TTTAACGTTGAATATACACACATATATATATATATA [CACACA_site3698],9.66
11,AAGAAAAAATAAAAAATAAAAATAAAAAATAAAAAA [TGCATGCA_negctrl_site274],9.56
12,TAAGGATGAATCCTTTGTACATATATATATATATAT [XGTACX_site1242],9.64
13,TTTTTTTAAATATACACACACATTTATACATATATA [CACACA_site3400],10.1
14,GTTATACATTTTGATTGTACATAAACCATTTGAGCA [XGTACX_site7283],9.48
15,TGAAAAGAAAACACATGTACAAATATATAAATATAA [XGTACX_site6098],9.81
16,TTTATATATATTCTCACACACTTTTTATTTTAACAA [CACACA_site4534],9.92
17,ATAAATTTCCTCGTTTTTTTTTTTTTTTTTTTTTTT [CACACA_negctrl_site1173],9.48
18,AAAAATATTTATAACACACACATAATATTTATATAT [CACACA_site7238],10.1
19,ATATATTTACATATTACACACAATATTGTACACATA [CACACA_site6564],9.94

row,Sequence,gcPBM binding intensity (ln)
1,CAAGAAATTTACAAACGTACATATGTTCATACAAGG [XGTACX_site2372],9.81
2,TTAGAGAAACAAAATTGTACATTATAAATTTGCCTT [XGTACX_site440],9.43
3,TATTTGAAAGCCAATTGTACTTTAGTTTTTGAAACA [XGTACX_site5542],9.4
4,CTATTTCAGAAACACACACACACAAACAAACATATA [CACACA_site978],10.4
5,TTAAATATAATATTATGTACTAAATATTTTTTTATT [XGTACX_site6121],9.58
6,TTTCTTTTTAAATAGGTGCATATTTTTATAAATATA,9.51
7,TATATATATATATATATATATATGTATGTGCATTTA [TGCATGCA_negctrl_site53],9.56
8,ATATAAAAATGTAAGGGTACATAATAAATAATCAAA [XGTACX_site5217],9.99
9,ATTTAGAAAAATAAAACACACATATATATGTAAATA [CACACA_site4113],9.84
10,ATCTGTCGACAGGACAGTACACAGTAGCCAGGAAAT [XGTACX_site1994],9.67
11,GAAGGAAAAACAGAATGTACATAAATAAACGTATAT [XGTACX_site753],10.1
12,ACAAAATTTACAAAATGTACAAAATTTACAAAATGT [XGTACX_site6464],9.56
13,TATATCTTACTTTTTGCACACACTAATATTATTGTT [CACACA_site1640],10.4
14,AATACGGCAAACATTAAAAAATATAATAACAATAAA [CACACA_negctrl_site868],9.82
15,GGAAAAAATATATGCACACCCCCCAAAAAAAAAAAA [CACACA_site2222],10.3
16,AAAAAATATTAATATAGTACTTTATATTTATAAGTA [XGTACX_site6895],9.47
17,TTTTTGTTATTTTTAGTGCACATTTAAGGGTGTATT,9.7
18,ATATATATATATACATGTACATATATACATTATATT [XGTACX_site936],9.69
19,AAACATTTAAATGGAAACACAGAAAAATGAAAAATG [CACACA_negctrl_site457],9.96

row,Sequence,gcPBM binding intensity (ln)
1,TTTTTTTTTTGTAATACACACCACTATATGTTATTT [CACACA_site5087],10.1
2,TAAAAAATAAAATACACACACATATTTATATTTATA [CACACA_site6737],10.2
3,CAACAACATTTTTCATGTACATATATTTTATAATAT [XGTACX_site519],9.72
4,AAAAAAAAAAAAAACATACACACAAGAACAAAATAT [CACACA_site3003],10.2
5,ATGTTATATTTTTTTATACACACTGGAATATATAAA [CACACA_site215],9.55
6,TATATATATATATATTGTACTTTATTTTATATATTC [XGTACX_site5697],9.79
7,ATTATTATTGTCAAATGTACAAGCTAATAATTTTTA [XGTACX_site7167],9.32
8,ATTTATAATGAGTATACACACATATATAGATTTGCT [CACACA_site4517],9.77
9,AAAAAAAAAAAAAAAACACACATATATGTATATATA [CACACA_site3276],9.78
10,CAATTACGCAGGAATGCACACAATAATAAAAAAAAT [CACACA_site3513],9.87
11,TTTTTTCTTTTCAAGGTGCTTTATAAGAAAAAGGGA [GTGCAC_site9858],9.17
12,AAAAAAAAAAAAAACACACACACACCCAAATACATA [CACACA_site708],10.5
13,TATATTAAAACAAGCACACAATCGCATAATATCCTT [CACACA_site3210],10.1
14,TATTTTATCATTTGCACACGCACACCCACATAAAAA [CACACA_site354],10.1
15,AGTATTATATTTTCTTGTACACATGTAAAATACCTC [XGTACX_site1359],9.65
16,TATTATTCAAATAAAAGAAAAATATATATATTATAT [GTGCAC_negctrl_site273],9.49
17,ATATGTTACTTTACATAAAGAAGAAGAAGAAGAAAA [CACACA_negctrl_site985],9.66
18,TTTCAAAAAGGAAGAAAAAAAAAAAAAAAAAATATA [XGTACX_negctrl_site514],9.23
19,TCCCCCTTTTTTTGATTTTTATCTTAATTCTAAAAG [GTGCAC_negctrl_site541],9.46

# — the supplement of paper PMC11417369
